# Data from PubChem BioAssay AID588342 (National Center for Advancing Translational Sciences (NCATS), 2011).
# Hit rate of the full screen: of about 360,000 compounds, about 25,000 (6.9%) were called active. The inconclusive results got no clear call from the source; some entries with a clear call stand among them for comparison. Calls follow the shape of the dose curve; as a rule, active = well fitted inhibition curve with a large enough effect; inconclusive = small, poorly fitted or top-dose-only effect; inactive = flat fitted curve, though single readings scatter. A potency beside an inconclusive call is a rough fit, not a confirmed value.
# Biological target: Luciferin 4-monooxygenase (Photinus pyralis) (UniProt P08659)
# UniProt P08659, sequence (P08659 whole entry, looked up): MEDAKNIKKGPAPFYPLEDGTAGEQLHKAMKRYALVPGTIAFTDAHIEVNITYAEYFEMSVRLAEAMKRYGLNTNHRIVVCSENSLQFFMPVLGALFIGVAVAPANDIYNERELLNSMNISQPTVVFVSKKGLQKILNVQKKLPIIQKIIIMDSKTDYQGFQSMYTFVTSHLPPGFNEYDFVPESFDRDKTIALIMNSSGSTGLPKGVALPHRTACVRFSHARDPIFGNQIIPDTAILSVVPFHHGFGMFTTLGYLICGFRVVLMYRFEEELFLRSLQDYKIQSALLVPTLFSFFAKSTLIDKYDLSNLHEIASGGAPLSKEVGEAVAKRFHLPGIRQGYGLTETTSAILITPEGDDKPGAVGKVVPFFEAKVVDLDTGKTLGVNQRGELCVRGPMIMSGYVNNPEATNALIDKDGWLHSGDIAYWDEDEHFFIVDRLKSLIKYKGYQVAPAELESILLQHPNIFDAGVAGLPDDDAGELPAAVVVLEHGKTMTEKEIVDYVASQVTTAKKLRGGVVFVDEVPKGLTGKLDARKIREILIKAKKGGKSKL
# Experiment: qHTS profiling assay for firefly luciferase inhibitor/activator using purifed enzyme and Km concentrations of substrates (counterscreen for miR-21 project); also: nearly all actives have a fitted effect of over 55% in size
# Details: purified FLuc, luminescence inhibition; series mostly up to 57.5 µM
# Summary of the method: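 Purified P. pyralis luciferase, 10 nM final, with Km-level 10 uM D-luciferin and 10 uM ATP in 50 mM Tris acetate pH 7.5, 10 mM Mg acetate, 0.01% Tween-20, 0.05% BSA; 6-point qHTS titration about 60 µM downward; luminescence read.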
# Potency is read from the fitted curve at half-maximal effect; tags tell the direction and shape of the fitted curve.
row,SMILES,Potency
1,Cc1ccc(-n2ccnc(NCCc3ccc(S(N)(=O)=O)cc3)c2=O)cc1C,inactive
2,COc1cc(NC(=O)c2ccnc(N)c2)cc(C(=O)Nc2cccc(C(F)(F)F)c2)c1,active: 19 µM
3,CCC1CCCCN1C(=O)CSc1nc2c([nH]c3ccccc32)c(=O)n1-c1cccc(OC)c1 (stereo not given),inactive
4,CCCCC(=O)Nc1nnc(S(=O)(=O)N2CCCc3ccccc32)s1,inactive
5,O=C(O)c1cccc(NC(=O)c2ccccc2NC(=O)c2ccco2)c1,"inconclusive: 23.9 µM [inhibitor, partial curve]"
6,COc1ccc(NC(=O)c2ccc(-c3ccccc3C(F)(F)F)o2)cc1,active: 19 µM
7,O=C(NCc1ccncc1)C12CC3CC(CC(Cl)(C3)C1)C2,inactive
8,Cc1cccc(N2CCN(C(=O)c3cc4c(=O)n(C)c5ccccc5c4s3)CC2)c1C,inactive
9,CC(C)Cc1nnc(NC(=O)C2CSC3(C)CCC(=O)N23)s1 (stereo not given),inactive
10,Cc1ccc(/C=N/Nc2nc3ccccc3[nH]2)s1,active: 5.36 µM
11,O=C(N/N=C/c1cccc(F)c1)c1c(O)c2c([nH]c1=O)CCCC2,"inconclusive: 2.69 µM [inhibitor, partial curve, poor fit]"
12,COC(=O)c1ccc(Cl)cc1NC(=O)N(C)CCc1c(C)nn(C)c1C,inactive
13,Cc1ccn2c(NC(=O)c3cccs3)c(-c3ccccc3)nc2c1,"inconclusive: 37.9 µM [inhibitor, partial curve, poor fit]"
14,Cc1cc(O)cc2c(=O)c3ccccc3sc12,"inconclusive: 13.5 µM [inhibitor, partial curve, poor fit]"
15,CCOC(=O)c1ccc(NC(=O)c2csc3c2CCCCC3)cc1,"inconclusive: 10.7 µM [inhibitor, partial curve, poor fit]"
16,CCN(CC)S(=O)(=O)c1ccc2c(c1)nc(CCC(=O)Nc1ccc(N3CCOCC3)cc1)n2C,active: 16.9 µM
17,CCc1ccc(/C=C2\Oc3cc(OC(=O)N4CCOCC4)ccc3C2=O)cc1,active: 7.57 µM
18,O=C(OCC(=O)c1c[nH]c2ccccc12)c1ccco1,active: 9.53 µM
19,O=c1cc(-c2ccc(F)cc2)nc(SCc2nc(-c3ccccc3Cl)no2)[nH]1,inactive
20,COc1ccccc1/C=N/NC(=O)c1ccccc1Cl,"inconclusive: 37.9 µM [inhibitor, partial curve, poor fit]"
21,COc1cccc(/C=N/Nc2nnc3c(n2)[nH]c2ccccc23)c1OC,"inconclusive: 4.78 µM [inhibitor, full curve]"
22,COc1ccc(N2CCN(C(=O)c3ccc(NC(=O)C4=CSCCO4)cc3)CC2)cc1,inactive
23,Cc1nn(Cc2ccc([N+](=O)[O-])cc2)c(=O)n1-c1cccc(Cl)c1,inactive
24,Cc1ccc(C(=O)NCc2nc3ccccc3[nH]2)o1,inactive
25,CC(=O)c1ccc(NC(=O)CSc2nnc(NC(=O)C3CC3)s2)cc1,"inconclusive: 3.79 µM [inhibitor, full curve]"

row,SMILES,Potency
1,COc1nc(C)nc2c1ccc1ccccc12,"inconclusive: 16.9 µM [inhibitor, partial curve]"
2,O=[N+]([O-])c1ccccc1Nc1cccnc1,inactive
3,CCOc1ccc(CC(=O)N2CCN=C2SC)cc1,"inconclusive: 30.1 µM [inhibitor, partial curve, poor fit]"
4,O=C(Nc1ccc(CN2CCS(=O)(=O)CC2)cc1)c1ccc(Cl)cc1,"inconclusive: 21.3 µM [inhibitor, partial curve, poor fit]"
5,C=C(C)Cc1c(C)c(C#N)c2[nH]c3ccccc3n2c1=O,inactive
6,COc1ccc(NC(=O)Cc2nnc(SCC(=O)Nc3cc(C)ccc3OC)n2C)cc1,"inconclusive: 21.3 µM [inhibitor, partial curve, poor fit]"
7,CCc1ccc(CNC(=O)c2ccc3nc(C(C)C)oc3c2)cc1,inactive
8,CC(=O)c1sc(N/N=C/c2ccc(C(C)C)cc2)nc1C,active: 6.01 µM
9,CC(C)N(Cc1ccc(F)cc1)C(=O)c1cc2ccccc2oc1=O,"inconclusive: 15.1 µM [inhibitor, partial curve]"
10,CCOc1ccc(NC(=O)Nc2ccc3snnc3c2)cc1,inactive
11,CC(=O)c1ccc(N2CCN(C(=O)c3ccc(NC(=O)C4CCCO4)cc3)CC2)cc1 (stereo not given),"inconclusive: 26.9 µM [inhibitor, partial curve, poor fit]"
12,COc1cccc(CNC(=O)Cc2c(C)c3c(cc(C)c4c(C)coc43)oc2=O)c1,inactive
13,Cc1c(NC(=O)c2ccccc2N)cccc1C(=O)O,active: 9.53 µM
14,CC(C)(C)OC(=O)N[C@H](/C=C/c1ccccc1)C(=O)OC(C)(C)C,inactive
15,Cc1ccc(-c2noc(CSc3nnc(-c4ccccc4)n3C)n2)cc1,"inconclusive: 23.9 µM [inhibitor, partial curve]"
16,O=C(CCc1ccccc1)NCC(=O)N/N=C/c1ccc2c(c1)OCO2,"inconclusive: 26.9 µM [inhibitor, single point]"
17,CCOC(=O)c1c(NC(=O)CCCC(=O)O)sc2c1CCC2,"inconclusive: 23.9 µM [inhibitor, partial curve, poor fit]"
18,COc1ccc(Cl)cc1-c1nc(-c2ccc(Br)o2)no1,inactive
19,O=C(NCc1ccccc1)Nc1cccn(Cc2cccc(F)c2)c1=O,"inconclusive: 4.78 µM [inhibitor, full curve]"
20,CN(C)S(=O)(=O)c1cccc(NC(=O)c2ccc3nccnc3c2)c1,"inconclusive: 30.1 µM [inhibitor, partial curve, poor fit]"
21,CCNc1nnc(-c2ccc(C)cc2)o1,active: 15.1 µM
22,CCCc1cc(=O)oc2cc(C)cc(OCC(=O)Nc3ccc(CN4CCOCC4)cc3)c12,inactive
23,COc1ccc(-c2cn3cccnc3n2)cc1,active: 13.5 µM
24,CC(C)c1ccc(NS(=O)(=O)c2ccc3[nH]cc(C(=O)N4CCCC4)c(=O)c3c2)cc1,"inconclusive: 6.01 µM [inhibitor, partial curve]"
25,CCCCOc1ccc(-c2ncc(Cl)cn2)cc1,active: 2.69 µM

row,SMILES,Potency
1,CCn1ccc2cc(S(=O)(=O)N3CCCN(C(=O)Nc4cc(Cl)ccc4C)CC3)ccc21,inactive
2,COc1ccc(C(=O)Nc2ccc(N3CCCC3)cc2)cc1Br,"inconclusive: 9.53 µM [inhibitor, partial curve]"
3,COc1cccc(N(C(=O)c2ccco2)c2nc(-c3sc(NC(=O)c4ccco4)nc3C)cs2)c1,"inconclusive: 37.9 µM [inhibitor, partial curve, poor fit]"
4,Cc1ccc2nc(C)c(C(=O)N/N=C/c3cccs3)n2c1,"inconclusive: 16.9 µM [inhibitor, partial curve, poor fit]"
5,FC(F)c1nnc2c(Cl)cc(C(F)(F)F)cn12,inactive
6,Cc1ccc(NC(=O)C(C)OC(=O)c2ccc(NC(=O)CC#N)cc2)cc1S(=O)(=O)N1CCOCC1 (stereo not given),"inconclusive: 21.3 µM [inhibitor, partial curve, poor fit]"
7,O=C(NCc1ccccc1)c1ccc2nc(-c3ccco3)c(-c3ccco3)nc2c1,"inconclusive: 15.1 µM [inhibitor, partial curve, poor fit]"
8,CC1CCN(C(=O)c2cc(-c3cccc(Cl)c3)on2)CC1,active: 23.9 µM
9,CC(C)c1nnc(NC(=O)CS(=O)(=O)Cc2ccccc2)s1,"inconclusive: 0.0095 µM [inhibitor, partial curve, poor fit]"
10,COc1ccc(-c2noc(-c3ccc(NCCc4ccccc4)c([N+](=O)[O-])c3)n2)cc1OC,"inconclusive: 13.5 µM [inhibitor, partial curve]"
11,CC1(c2ccc([N+](=O)[O-])cc2)Nc2ccccc2S1 (stereo not given),active: 21.3 µM
12,Cn1c(=O)c(C(=O)NC2CCCCCCC2)c(O)c2ccccc21,"inconclusive: 16.9 µM [inhibitor, partial curve]"
13,COc1ccc(/C=N/N2C(=O)C3C4C=CC(CC4)C3C2=O)c(OC)c1 (stereo not given),"inconclusive: 21.3 µM [inhibitor, single point]"
14,Cc1c(CCC(=O)NCCC(=O)O)c(=O)oc2c(C)c3oc4c(c3cc12)CCCC4,"inconclusive: 37.9 µM [inhibitor, partial curve, poor fit]"
15,Cc1cc(C)c2nc(-c3cccnc3)cc(C(=O)NC(C)c3cnn(C)c3C)c2c1 (stereo not given),"inconclusive: 37.9 µM [inhibitor, single point]"
16,CN(CC(=O)Nc1ccc(Cl)c(C(F)(F)F)c1)C(=O)CCC(=O)c1ccccc1,inactive
17,Cc1cc(NC(=O)NC(=O)c2ccccc2)no1,"inconclusive: 12 µM [inhibitor, partial curve]"
18,COc1cccc(C(C[N+](=O)[O-])c2c(C)[nH]n(-c3ccccc3)c2=O)c1 (stereo not given),inactive
19,O=C1c2ccccc2C(=O)C1Cc1cccc2ccccc12,"inconclusive: 37.9 µM [inhibitor, partial curve, poor fit]"
20,CC(C)(C)C(=O)c1cnc(Nc2ccccc2)s1,active: 6.01 µM
21,CC(C)(C)c1ccc(OCC(O)CSc2ncn[nH]2)cc1 (stereo not given),active: 2.13 µM
22,Cc1ccccc1OCC(=O)Nc1ccccc1CO,"inconclusive: 37.9 µM [inhibitor, partial curve, poor fit]"
23,COc1ccc2c(c1OC)C(=O)c1ccccc1C2=O,"inconclusive: 6.01 µM [inhibitor, full curve]"
24,CC1CC(C)CN(C(=O)CNC(=O)c2sc3ccccc3c2Cl)C1 (stereo not given),"inconclusive: 16.9 µM [inhibitor, partial curve]"
25,O=C(CSc1ccc2ccccc2c1)Nc1ncccn1,"inconclusive: 30.1 µM [inhibitor, single point]"
